In PubChem BioAssay AID1963576 (National Center for Advancing Translational Sciences (NCATS), 2024):
Out of some 46,000 compounds screened, about 60 (0.1%) were called active. Not shown: some 3% with an inconclusive outcome. The call rests on the fitted dose curve; in most records, active means well fitted inhibition curve with a large enough effect; inconclusive means small, poorly fitted or top-dose-only effect; inactive means no such curve, though single readings can be large or run the other way. The list shows a part of the results.

Test: Primary qHTS assay for Inhibitors of ovarian cancer metastasis using an organotypic tumor microenvironment (TME) model. Further: nearly all actives have a fitted effect of over 65% in size.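 On activity change, negative = inhibition: plate controls were DMSO wells for no effect and tomatine positive control wells for full effect.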
Conditions: SKOV3ip1-GFP adhesion/invasion on 3D omental model, fluorescence; series mostly up to 45.8 µM; activity change, negative = inhibition: at the top concentration
Procedure, shortened: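 Primary human omental fibroblast/mesothelial 3D culture pre-formed 48 h. SKOV3ip1-GFP cells added with compounds (0.36-46 umol/L), incubated 2 h RT/16 h 37 C, fixed; GFP cells quantified at 488/509 nm.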

Activity change, negative = inhibition, inactive:
Cc1ccc(-c2cnc(NCc3ccc(C(F)(F)F)cc3)n2C)cc1 19.1%
COc1ccc(/C=C/C(=O)Nc2nc3n(n2)C(c2ccccc2)C=C(c2ccccc2)N3)cc1 (stereo not drawn) 6.74%
CC(C)(C)NC(=O)c1cnn2c(C(F)F)cc(-c3ccccc3)nc12 21.4%
O=C(CN1C(=O)CC(c2ccccc2)Sc2ccccc21)Nc1cccc(Cl)c1 (stereo not drawn) -3.93%
CCOCCn1ccc2c(OCC(=O)Nc3ccc(OC(F)(F)F)cc3)cccc2c1=O -6.68%
CC(=O)c1cccc(NC(=O)CCS(=O)(=O)c2ccc(Br)s2)c1 -2.33%
CCOC(=O)c1cc2c(=O)n3ccccc3nc2n(CC(C)C)c1=NC(=O)c1cc2ccccc2o1 -0.627%
Cc1ccc(S(=O)(=O)c2cn(Cc3ccc(F)cc3)c3cc(F)c(F)cc3c2=O)cc1 6.27%
O=C(NCc1ccccc1Cl)c1cnc2sc(N3CCCCC3)nn2c1=O 0.372%
CN1C(=O)C2(c3ccccc31)N(c1cccc(F)c1)C(=O)CS2(=O)=O (stereo not drawn) 1.79%
COCCCNC(=O)c1cc(-c2cccnc2)nc2ccc(S(=O)(=O)N3CCC(C)CC3)cc12 -5.99%
O=S(=O)(c1ccc(Br)cc1)c1nc(-c2cccs2)oc1SCc1ccccc1F -1.48%
O=C(Cn1nnc(-c2ccc(Cl)cc2)n1)NCc1ccc(F)cc1 -7.42%
COc1ccc(OC)c(CNS(=O)(=O)c2c(C(=O)N3CCCCCC3)c(C)n(C)c2C)c1 2.07%
Cc1ccc(CNC(=O)Cn2cc(S(=O)(=O)Cc3ccccc3F)c3ccccc32)cc1 1.97%
COc1ccc(Cl)cc1NC(=O)CSC1=Nc2ccccc2C2=NC(CC(=O)NCc3ccc4c(c3)OCO4)C(=O)N12 (stereo not drawn) 6.34%
Cc1ccc(NC(=O)c2cnc(SCC(=O)Nc3cc(C)on3)n(C)c2=O)cc1 -0.92%
COc1ccccc1N1CCN(C(=O)CCNS(=O)(=O)c2ccc3c(c2)CCN3C(=O)C2CC2)CC1 40.3%
CCc1ccccc1NC(=O)c1cnc2sc(N3CCOCC3)nn2c1=O -4.47%
CCOC(=O)c1ccc(NC(=O)CC2C(=O)N(c3cccc(OC)c3)C(=O)N2Cc2ccc(OC)cc2)cc1 (stereo not drawn) 7.11%
COc1ccc(C(CC(=O)NCc2ccccc2)N2Cc3ccccc3C2=O)cc1 (stereo not drawn) -7.49%
CCC(Oc1ccc(F)cc1)C(=O)Nc1nc(-c2ccc(F)cc2)ns1 (stereo not drawn) -9.59%
CCn1c(=O)n(CC)c2cc(N3CCCCC3)c(NC(=O)Nc3ccccc3C(F)(F)F)cc21 -12.9%
COc1ccccc1C(=O)Nc1ccc2c(c1)nc(CN1CCCCC1)n2C -2.82%
C=CCc1ccccc1OCC(O)CN1CCN(c2ccccc2)CC1 (stereo not drawn) -16.3%
Cc1ccc(-c2nc3ccc(Cl)cn3c2Nc2ccccc2C)s1 -0.0792%
Cc1sc2c(c1C)c(=O)n(-c1cccc(C(F)(F)F)c1)c(=O)n2Cc1ccc(F)cc1 -6.26%
CN(Cc1ccccc1)C(=O)CSc1nc2ccccc2n1Cc1ccccc1F 9.43%
CC(C)c1cnc2c(c1SCC(=O)NCc1ccccc1)c(=O)n(C)c(=O)n2C -2.29%
COc1ccc(CNC(=O)c2cnc3cc(C)ccn3c2=O)cc1 6.02%
CCCCN(CC)C(=O)Cn1nc(C)c2c(C)n(-c3ccccc3)nc2c1=O 17.7%
O=C(c1ccccc1)c1ccc2nc(Nc3ccccc3Cl)c3nncn3c2c1 2.35%
CCOC(=O)c1c(C)oc2nc(C)nc(NCc3cccc(OC)c3)c12 5.93%
CCOCN(C(=O)CSc1nc2ccccc2[nH]1)c1c(C)cccc1CC 15.3%
CCn1c(=O)cc(SCC(=O)N2CCN(c3cc(C)ccc3C)CC2)c2ccccc21 -2.82%
COc1ccccc1NC(=O)CCNS(=O)(=O)c1ccc2c(c1)CCCC(=O)N2 -8.44%
Cc1ccc(N2CC(C(=O)Nc3ccc(Cl)cc3Cl)CC2=O)cc1 (stereo not drawn) 0.244%
CCOC(=O)c1cc(OC(=O)c2ccc(OC)c(OC)c2)n(-c2ccccc2)n1 6.26%
Cc1nn(C(C)C(=O)NCc2cccc(F)c2)c(=O)c2c1sc1ccccc12 (stereo not drawn) 7.42%
CCc1ccc(-c2csc(-c3cc4cc(Br)ccc4oc3=O)n2)cc1 -6.64%
COc1ccc(C(=O)Nc2nnc(S(=O)(=O)N3CCOCC3)s2)cc1 7.49%
CCOc1ccccc1CNC(=O)c1cnc2sc(N3CCC(C)CC3)nn2c1=O 2.57%
CN(Cc1cc(Br)cc(Br)c1N)C1CCCCC1 -2.61%
O=C(CSc1nnc(-c2ccccc2)o1)N1CCCc2ccccc21 -3.87%
CCOC(=O)N1CCc2c(sc3c2c(=O)n(-c2ccc(Cl)cc2)c(=O)n3CC(=O)Nc2ccccc2)C1 5.59%
COc1ccc(C)cc1NC(=O)C(NS(=O)(=O)c1cccc2nsnc12)c1ccccc1 (stereo not drawn) -6.66%
CCN(CC)C(=O)Cn1cc(SCC(=O)Nc2ccc(C)cc2)c2ccccc21 4.23%
Cn1cnc2c(F)c(Nc3ccc(Br)cc3Cl)c(C(=O)NOCCO)cc21 10.3%
Cc1cc(C)c2c(C)c(C(=O)N3CCC(c4nc5ccccc5s4)CC3)oc2c1 -9.1%
Nc1nc(N)c2nc(-c3cccc(O)c3)c(-c3cccc(O)c3)nc2n1 -8.96%
CCn1c2ccc(F)cc2c2nnc(SCCN3CCCCC3)nc21 -3.73%
Cc1ccc(NC(=O)CCC(=O)N2CCOc3ccccc32)c(Cl)c1 10.1%
Cc1ccc(C(=O)Nc2ccccc2F)cc1S(=O)(=O)N1CCOCC1 -6.33%

outcome, inactive:
Clc1ccccc1CNc1nc2ccccc2c2nc(-c3cccnc3)nn12
COc1ccc(Cl)cc1NC(=O)c1c(NCc2sccc2C)sc2c1CCCC2
Cc1cc(C)n2nc(SCC(=O)Nc3cccc(C(F)(F)F)c3)nc2n1
COc1ccccc1Cc1nc2ccccc2nc1SCC(=O)Nc1cccc(Cl)c1C
COC(=O)c1ccc(NC(=O)CCc2c(C)nc3c(c2C)c(=O)n(C)c(=O)n3C)cc1
Cc1ccccc1NC(=O)CSc1nc(=O)n(CCN2CCOCC2)c2c1CCC2
COc1cc(NC(=O)CSC2=Nc3ccccc3N=C(c3ccc(F)cc3)C2)cc(OC)c1
COc1ccccc1CNC(=O)CCCn1c(=O)c2ccccc2n(Cc2ccccc2F)c1=O
Cc1ccc(C)c(N2CCN(C(=O)Cn3nc(Cc4cccnc4)c4ccccc4c3=O)CC2)c1
Cc1cccc(CNC(=O)C2CCN(c3nc4ccc(Cl)cc4[nH]3)CC2)c1
